{"source": "the supplement of paper PMC8728848", "binders": {"B1": {"name": "PX9961A-pdi-456-24-456 (Parabacteroides distasonis) (protein)", "chain": "KTSSTQLPTIDAISSVADLTNAVNGVYEQQATEVGSYGAEFTLLADLRSGDFQSISTVNHAGPMYRYQTGKNDEMVYSFYKLFYNSLARLNNVLAAAENLEGADVDILKGELYAMRALYHFDLARVFAKLPSTTDMNDLGIVLSTEVYPTDYIGTRATLQQTYDQILKDIETALPLLSKDKQTGHINYWGALAIRARAYLYLEKNKEALADCKEIIASSPYKLYTRDEYIGAWDKEGTNEAIFEILVTPNYNAQRNSIGYFTHASGYGECAATESFLEELAKHPGDIRTELFAKETDNGYDGTYPQKYKGRDGQIYVNNPKVVRLSEVYLIAAEAALKAGDTSAAAGYMNTLRKNRIENYTDVASITLDDILLERRLELFTEGHTAWDAWRNGKSVNNKFVGEVKPGDYRTIMAIPIGEITVSRGQLIQNPGY"}}, "test_in_all_cases": "glycan array binding signal (z-score within array); higher = stronger binding", "conditions_in_all_cases": "glycan notation: IUPAC condensed, linker removed", "key": {"Gal6S(b1-4)Glc": {"molecular_target": "Gal6S(b1-4)Glc", "summary_of_the_method": "(§1)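 Glycan array binding is given as a within-array Z-score, which can be read as non-binding when negative. The arrays, 3228 of them, came from the Consortium for Functional Glycomics database and were retained only where the protein sequence was available. Z-scores were averaged across arrays of the same protein sequence at different concentrations or buffers and across linkers.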"}, "Gal6S(b1-4)Glc6S": {"molecular_target": "Gal6S(b1-4)Glc6S", "summary_of_the_method": "as §1"}, "Gal6S(b1-4)GlcNAc": {"molecular_target": "Gal6S(b1-4)GlcNAc", "summary_of_the_method": "as §1"}, "Gal6S(b1-4)GlcNAc6S": {"molecular_target": "Gal6S(b1-4)GlcNAc6S", "summary_of_the_method": "as §1"}, "GalNAc(a1-3)Gal": {"molecular_target": "GalNAc(a1-3)Gal", "summary_of_the_method": "as §1"}, "GalNAc(a1-3)GalNAc": {"molecular_target": "GalNAc(a1-3)GalNAc", "summary_of_the_method": "as §1"}, "[1]": {"molecular_target": "GalNAc(a1-3)GalNAc(b1-3)Gal(a1-4)Gal(b1-4)Glc", "summary_of_the_method": "as §1"}, "[2]": {"molecular_target": "GalNAc(a1-3)GalNAc(b1-3)Gal(a1-4)Gal(b1-4)GlcNAc", "summary_of_the_method": "as §1"}, "GalNAc(b1-3)Gal": {"molecular_target": "GalNAc(b1-3)Gal", "summary_of_the_method": "as §1"}, "[3]": {"molecular_target": "GalNAc(b1-3)Gal(a1-4)Gal(b1-4)GlcNAc", "summary_of_the_method": "as §1"}, "[4]": {"molecular_target": "GalNAc(b1-3)Gal(a1-4)Gal(b1-4)GlcNAc(b1-3)Gal(b1-4)Glc", "summary_of_the_method": "as §1"}, "[5]": {"molecular_target": "GalNAc(b1-3)Gal(a1-6)Gal(b1-4)Glc", "summary_of_the_method": "as §1"}, "GalNAc(b1-3)GalNAc": {"molecular_target": "GalNAc(b1-3)GalNAc", "summary_of_the_method": "as §1"}, "GalNAc(b1-3)GlcNAc": {"molecular_target": "GalNAc(b1-3)GlcNAc", "summary_of_the_method": "as §1"}, "GalNAc(b1-4)Gal(b1-4)Glc": {"molecular_target": "GalNAc(b1-4)Gal(b1-4)Glc", "summary_of_the_method": "as §1"}, "GalNAc(b1-4)GlcNAc": {"molecular_target": "GalNAc(b1-4)GlcNAc", "summary_of_the_method": "as §1"}, "[6]": {"molecular_target": "GalNAc(b1-4)GlcNAc(b1-2)Man", "summary_of_the_method": "as §1"}, "[7]": {"molecular_target": "GalNAc(b1-4)GlcNAc(b1-2)Man(a1-3)[GalNAc(b1-4)GlcNAc(b1-2)Man(a1-6)]Man(b1-4)GlcNAc(b1-4)GlcNAc", "summary_of_the_method": "as §1"}, "[8]": {"molecular_target": "GalNAc(b1-4)GlcNAc(b1-3)GalNAc(b1-4)GlcNAc", "summary_of_the_method": "as §1"}, "GalNAc(b1-4)GlcNAc6S": {"molecular_target": "GalNAc(b1-4)GlcNAc6S", "summary_of_the_method": "as §1"}, "GalNAc(b1-6)GalNAc": {"molecular_target": "GalNAc(b1-6)GalNAc", "summary_of_the_method": "as §1"}, "GalNAc3S(b1-4)GlcNAc": {"molecular_target": "GalNAc3S(b1-4)GlcNAc", "summary_of_the_method": "as §1"}, "GalNAc3S(b1-4)GlcNAc3S": {"molecular_target": "GalNAc3S(b1-4)GlcNAc3S", "summary_of_the_method": "as §1"}, "[9]": {"molecular_target": "GalNAc3S(b1-4)[Fuc(a1-3)]GlcNAc", "summary_of_the_method": "as §1"}, "GalNAc4S6S(b1-4)GlcNAc": {"molecular_target": "GalNAc4S6S(b1-4)GlcNAc", "summary_of_the_method": "as §1"}, "GalNAc6S(b1-4)GlcNAc": {"molecular_target": "GalNAc6S(b1-4)GlcNAc", "summary_of_the_method": "as §1"}, "Glc(a1-4)Glc": {"molecular_target": "Glc(a1-4)Glc", "summary_of_the_method": "as §1"}, "[10]": {"molecular_target": "Glc(a1-4)Glc(a1-4)Glc(a1-4)Glc", "summary_of_the_method": "as §1"}, "Glc(a1-6)Glc(a1-6)Glc": {"molecular_target": "Glc(a1-6)Glc(a1-6)Glc", "summary_of_the_method": "as §1"}, "[11]": {"molecular_target": "Glc(a1-6)Glc(a1-6)Glc(a1-6)Glc", "summary_of_the_method": "as §1"}, "Glc(b1-4)Glc": {"molecular_target": "Glc(b1-4)Glc", "summary_of_the_method": "as §1"}, "Glc(b1-6)Glc": {"molecular_target": "Glc(b1-6)Glc", "summary_of_the_method": "as §1"}, "GlcA(b1-3)Gal": {"molecular_target": "GlcA(b1-3)Gal", "summary_of_the_method": "as §1"}, "GlcA(b1-3)GlcNAc": {"molecular_target": "GlcA(b1-3)GlcNAc", "summary_of_the_method": "as §1"}, "GlcA(b1-6)Gal": {"molecular_target": "GlcA(b1-6)Gal", "summary_of_the_method": "as §1"}, "[12]": {"molecular_target": "GlcA3S(b1-3)Gal(b1-4)GlcNAc(b1-2)Man", "summary_of_the_method": "as §1"}, "[13]": {"molecular_target": "GlcA3S(b1-3)Gal(b1-4)GlcNAc(b1-3)Gal(b1-4)Glc", "summary_of_the_method": "as §1"}}, "note": "The other results are listed elsewhere or left out."}
{"binder": "B1", "values": [{"measurement": "glycan array binding signal (z-score)", "setting": "Gal6S(b1-4)Glc", "result": -0.351}, {"measurement": "glycan array binding signal (z-score)", "setting": "Gal6S(b1-4)Glc6S", "result": 0.008}, {"measurement": "glycan array binding signal (z-score)", "setting": "Gal6S(b1-4)GlcNAc", "result": 1.72}, {"measurement": "glycan array binding signal (z-score)", "setting": "Gal6S(b1-4)GlcNAc6S", "result": 0.056}, {"measurement": "glycan array binding signal (z-score)", "setting": "GalNAc(a1-3)Gal", "result": 3.31}, {"measurement": "glycan array binding signal (z-score)", "setting": "GalNAc(a1-3)GalNAc", "result": -0.374}, {"measurement": "glycan array binding signal (z-score)", "setting": "[1]", "result": -0.433}, {"measurement": "glycan array binding signal (z-score)", "setting": "[2]", "result": -0.597}, {"measurement": "glycan array binding signal (z-score)", "setting": "GalNAc(b1-3)Gal", "result": -0.363}, {"measurement": "glycan array binding signal (z-score)", "setting": "[3]", "result": 0.389}, {"measurement": "glycan array binding signal (z-score)", "setting": "[4]", "result": 0.012}, {"measurement": "glycan array binding signal (z-score)", "setting": "[5]", "result": 0.144}, {"measurement": "glycan array binding signal (z-score)", "setting": "GalNAc(b1-3)GalNAc", "result": -0.496}, {"measurement": "glycan array binding signal (z-score)", "setting": "GalNAc(b1-3)GlcNAc", "result": -0.227}, {"measurement": "glycan array binding signal (z-score)", "setting": "GalNAc(b1-4)Gal(b1-4)Glc", "result": 0.003}, {"measurement": "glycan array binding signal (z-score)", "setting": "GalNAc(b1-4)GlcNAc", "result": 1.7}, {"measurement": "glycan array binding signal (z-score)", "setting": "[6]", "result": -0.275}, {"measurement": "glycan array binding signal (z-score)", "setting": "[7]", "result": 0.266}, {"measurement": "glycan array binding signal (z-score)", "setting": "[8]", "result": 0.949}, {"measurement": "glycan array binding signal (z-score)", "setting": "GalNAc(b1-4)GlcNAc6S", "result": 0.263}, {"measurement": "glycan array binding signal (z-score)", "setting": "GalNAc(b1-6)GalNAc", "result": -0.186}, {"measurement": "glycan array binding signal (z-score)", "setting": "GalNAc3S(b1-4)GlcNAc", "result": -0.381}, {"measurement": "glycan array binding signal (z-score)", "setting": "GalNAc3S(b1-4)GlcNAc3S", "result": -0.352}, {"measurement": "glycan array binding signal (z-score)", "setting": "[9]", "result": -0.608}, {"measurement": "glycan array binding signal (z-score)", "setting": "GalNAc4S6S(b1-4)GlcNAc", "result": -0.107}, {"measurement": "glycan array binding signal (z-score)", "setting": "GalNAc6S(b1-4)GlcNAc", "result": -0.403}, {"measurement": "glycan array binding signal (z-score)", "setting": "Glc(a1-4)Glc", "result": -0.435}, {"measurement": "glycan array binding signal (z-score)", "setting": "[10]", "result": 0.037}, {"measurement": "glycan array binding signal (z-score)", "setting": "Glc(a1-6)Glc(a1-6)Glc", "result": -0.09}, {"measurement": "glycan array binding signal (z-score)", "setting": "[11]", "result": -0.49}, {"measurement": "glycan array binding signal (z-score)", "setting": "Glc(b1-4)Glc", "result": 0.012}, {"measurement": "glycan array binding signal (z-score)", "setting": "Glc(b1-6)Glc", "result": -0.218}, {"measurement": "glycan array binding signal (z-score)", "setting": "GlcA(b1-3)Gal", "result": -0.413}, {"measurement": "glycan array binding signal (z-score)", "setting": "GlcA(b1-3)GlcNAc", "result": -0.238}, {"measurement": "glycan array binding signal (z-score)", "setting": "GlcA(b1-6)Gal", "result": -0.294}, {"measurement": "glycan array binding signal (z-score)", "setting": "[12]", "result": -0.048}, {"measurement": "glycan array binding signal (z-score)", "setting": "[13]", "result": 0.449}]}
